# Results taken from PubChem BioAssay AID1345082 (National Center for Advancing Translational Sciences (NCATS), 2018).
# About 4,000 (4.3%) of roughly 94,000 compounds were called active. Inconclusive means that the source gave no clear call. Such entries were picked first, then a sample of the others. The call rests on the fitted dose curve; in most records, active means well fitted inhibition curve with a large enough effect; inconclusive means small, poorly fitted or top-dose-only effect; inactive means no such curve, though single readings can be large or run the other way. A potency beside an inconclusive call is a rough fit, not a confirmed value.
# Assay: Cytotoxic Profiling in NIH 3T3 Cell Line of Diverse Libraries Using Quantitative High-Throughput Screening; further: nearly all actives have a fitted effect of over 55% in size
# Settings: NIH 3T3 viability, CellTiter-Glo ATP luminescence, 48-72 h; series mostly up to 96.7 µM
# Summary of the method: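 Cytotoxicity was measured by CellTiter-Glo ATP luminescence after 48 or 72 h compound exposure at 37 °C. Mouse NIH 3T3 fibroblasts were seeded at 400 cells/well and dosed by 23 nL pin transfer.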
# Potency means the concentration at half of the fitted maximal effect; tags describe the fitted curve by direction and shape.
row,Compound,Potency
1,COc1ccc(NC(=O)N2CCCC(Cc3noc(-c4ccccc4)n3)C2)cc1 (centres undefined),active: 35.5 µM
2,Cc1nnc(-c2cc(-c3cccnc3)ccn2)n1CCN1CCOCC1,"inconclusive: 56.2 µM [inhibitor, partial curve, poor fit]"
3,O=C(OCc1ccccc1)N1CCOCC12CCN(Cc1ncccn1)CC2,"inconclusive: 112 µM [inhibitor, single point]"
4,CSCCNC(=O)[C@@H]1CCCN1c1nccc(Nc2ccccc2Cl)n1,"inconclusive: 44.7 µM [inhibitor, partial curve, poor fit]"
5,COC[C@H]1C[C@H]2C[C@@H](Oc3ccccn3)[C@H](N(C)CCc3ccc(OC)c(OC)c3)[C@]2(O)CO1,"inconclusive: 31.6 µM [inhibitor, partial curve, poor fit]"
6,Cc1cccc(CNC(=O)C2CCCCC(=O)N2)c1 (centres undefined),inactive
7,CCCNc1cc(N2CCC(CCC(=O)N(C)CCc3ccncc3)CC2)ncn1,"inconclusive: 10 µM [inhibitor, partial curve, poor fit]"
8,CN(Cc1ccc(-c2ccccc2)cc1)S(C)(=O)=O,"inconclusive: 39.8 µM [inhibitor, partial curve, poor fit]"
9,COc1ccccc1CCC(=O)N1CCCN(c2cc(-c3ccc(Cl)cc3)[nH]n2)CC1,active: 35.5 µM
10,COc1ccc2c3c1C(C(N)=O)N(Cc1ccccc1)CC3=CC(C)(C)CO2 (centres undefined),"inconclusive: 56.2 µM [inhibitor, partial curve, poor fit]"
11,CCCCn1c(=O)c(C(=O)NCC(F)F)nc2cccnc21,inactive
12,CCCOc1ccccc1C(=O)N1CCc2onc(-c3ccccc3)c2C1,"inconclusive: 50.1 µM [inhibitor, partial curve, poor fit]"
13,COc1ccc(-c2ccc3c(c2)C(=O)N2CCN(C(=O)CC(C)(C)C)C[C@@H]2C(=O)N3)c(OC)c1,inactive
14,O=C(c1ccoc1)N1CCC(O)(c2ccccc2)[C@H](N2CCCC2)C1 (some centres undefined),"inconclusive: 70.8 µM [inhibitor, single point]"
15,CC(c1ccon1)N(C)C(=O)c1ccc(OC2CCN(S(=O)(=O)N(C)C)CC2)cc1 (centres undefined),"inconclusive: 44.7 µM [inhibitor, partial curve, poor fit]"
16,O=C(Cc1ccccn1)NCCNC(=O)c1ccc(-c2cccc(C(F)(F)F)c2)cc1,"inconclusive: 50.1 µM [inhibitor, partial curve, poor fit]"
17,CN1c2cc(C(=O)NCc3ccccc3C(F)(F)F)ccc2C(=O)N2CCCCC21 (centres undefined),"inconclusive: 56.2 µM [inhibitor, partial curve, poor fit]"
18,CC1=C[C@@H](CO)[C@H](C(C)C)C[C@H]1Cc1nnc(-c2cccnc2)o1,inactive
19,CN(Cc1cccnc1)Cc1nc(C2(O)CCN(Cc3ccc(F)cc3)CC2)cs1,"inconclusive: 63.1 µM [inhibitor, full curve]"
20,O=C(CN1C(=O)NC2(CCOCC2)C1=O)NC1CCCC1,inactive
21,O=C(Nc1ccccc1)Nc1ccc(=O)n2c1[C@@H]1C[C@@H](CN(C(=O)COc3ccccc3)C1)C2,inactive
22,COc1ccc(F)cc1-c1ccc(CN2CCC(NC(=O)c3ccccc3F)C2)cc1 (centres undefined),"inconclusive: 50.1 µM [inhibitor, partial curve, poor fit]"

row,Compound,Potency
1,Cc1nn(C)c2nc(-c3ccccn3)nc(N3CCC4(CC3)COC(=O)O4)c12,inactive
2,COc1ccc(-c2nc(C3CC(=O)N(c4ccc(OC)c(OC)c4)C3)no2)c(OC)c1 (centres undefined),"inconclusive: 44.7 µM [inhibitor, partial curve, poor fit]"
3,CO[C@H]1C(=O)N(C(C)C)[C@H]1C1CCN(Cc2ccc(C)s2)CC1,inactive
4,Cc1cccc(OCCc2noc(C3CN(C(=O)C(C)C)C3)n2)c1,inactive
5,Cn1nc(C(=O)NC2CCCc3c2[nH]c2ccccc32)c2ccccc2c1=O (centres undefined),"inconclusive: 39.8 µM [inhibitor, partial curve, poor fit]"
6,Cc1ccc(C)c(C(=O)N2CCC3(CC2)NC(=O)N(c2ccc(F)cc2)N3)c1,"inconclusive: 44.7 µM [inhibitor, partial curve, poor fit]"
7,COc1ccc(C(=O)N2CCC(=O)N(CCC#N)C[C@H]3COc4ccccc4[C@H]32)cc1,"inconclusive: 79.4 µM [inhibitor, single point]"
8,O=C(C1CCCN1C(=O)c1cccc(-c2ccccn2)c1)N1CCC(Cc2ccccc2)CC1 (centres undefined),"inconclusive: 39.8 µM [inhibitor, partial curve, poor fit]"
9,COc1cccc(-c2cccc(C(=O)N3CCN(C(=O)c4ccccc4)CC3)c2)c1,"inconclusive: 44.7 µM [inhibitor, partial curve, poor fit]"
10,O=C1NCCCCCCN(S(=O)(=O)c2cccc3cccnc23)[C@H]2CCCC[C@@H]12,inactive
11,O=C(NC1CCCN(c2cc(-c3ccc(F)cc3)[nH]n2)C1)c1ccc(F)cc1F (centres undefined),"inconclusive: 50.1 µM [inhibitor, partial curve, poor fit]"
12,CCN1CCCC2(Cc3ccccc3CN([S+](=O)([O-])c3ccccc3)C2)C1 (centres undefined),inactive
13,Cc1cc2nc3n(c(=O)c2n1CC(=O)NCCc1ccc(Cl)cc1)CCCC3,"inconclusive: 63.1 µM [inhibitor, partial curve, poor fit]"
14,COc1ccccc1CN1CCNc2cnc(-c3ccccc3)cc2C1,"inconclusive: 79.4 µM [inhibitor, partial curve, poor fit]"
15,Cc1cc(C)cc(NC(=O)c2ccc3c(c2)N(C)C2CCCCN2C3=O)c1 (centres undefined),"inconclusive: 50.1 µM [inhibitor, single point]"
16,COC1C(=O)N(CC2CC2)C12CCN(C(=O)c1ccc(C)s1)CC2 (centres undefined),inactive
17,CNC(=O)N1CCC(C2CCN(Cc3cccc(OC)c3OC)C2)CC1 (centres undefined),inactive
18,COCCNC(=O)c1nc2cccnc2n(-c2ccccc2OC)c1=O,inactive
19,CC(O)CN1CCC(=O)N(CC(C)(C)C)Cc2cc3c(cc21)OCO3 (centres undefined),"inconclusive: 56.2 µM [inhibitor, partial curve, poor fit]"
20,CCc1noc(-c2cn(C3CCCN(C(=O)c4cc(Cl)ccc4F)C3)nn2)n1 (centres undefined),"inconclusive: 35.5 µM [inhibitor, partial curve, poor fit]"
21,C=CCNC(=O)N[C@H]1CO[C@H]2[C@@H]1OC[C@@H]2Nc1nccc(C(C)(C)C)n1,"inconclusive: 112 µM [inhibitor, single point]"
22,O=C(NCCN[S+](=O)([O-])c1cccs1)c1ccc(-c2cncnc2)cc1,"inconclusive: 79.4 µM [inhibitor, single point]"

row,Compound,Potency
1,CO[C@@](C(=O)N1CCOC[C@H]1c1ncc(-c2ccccc2)[nH]1)(c1ccccc1)C(F)(F)F,active: 44.7 µM
2,CC(NC(=O)c1cc(-c2ccccc2C(F)(F)F)nc2c1cnn2C)C(C)(C)C (centres undefined),"inconclusive: 28.2 µM [inhibitor, partial curve]"
3,CCC(C)N1CCN(C(=O)CCc2ccc3c(c2)CN(C(=O)C2CC2)CCO3)CC1 (centres undefined),"inconclusive: 50.1 µM [inhibitor, partial curve, poor fit]"
4,CCOC(=O)C1CCCN(C(=O)c2cn3cc(-c4cccc(OC)c4)sc3n2)C1 (centres undefined),"inconclusive: 50.1 µM [inhibitor, partial curve, poor fit]"
5,COc1cccc(-c2c(C(=O)NCCc3ccccc3F)nc3sccn23)c1,"inconclusive: 39.8 µM [inhibitor, partial curve, poor fit]"
6,O=C1NCc2ccccc2CC12CCN(Cc1ccncc1)CC2,inactive
7,COc1ccc(Cn2c(=O)c(C(=O)N3CCN(C(=O)c4ccccc4)CC3)nc3cccnc32)cc1,inactive
8,COc1ccc(C(=O)NC(C)c2nncn2C)cc1OC1CCN(C(C)=O)CC1 (centres undefined),"inconclusive: 100 µM [inhibitor, partial curve, poor fit]"
9,O=C(C[C@@H]1CCNC[C@@H]1Cc1cc(-c2ccc(F)cc2)on1)NCc1cccnc1,inactive
10,Cn1c(CCNC(=O)Cn2nc3c(cc2=O)CCCCC3)nc2ccccc21,inactive
11,O=C(c1ccco1)N1CCC(n2cc(-c3nc(-c4ccccc4)no3)nn2)CC1,"inconclusive: 44.7 µM [inhibitor, partial curve, poor fit]"
12,O=C1N(Cc2ccccc2)c2ccccc2C12CCN(Cc1cncs1)C2 (centres undefined),"inconclusive: 50.1 µM [inhibitor, single point]"
13,CN(c1ccccc1)c1cc(=O)c2ccnc(NCC3CCOCC3)c2o1,active: 8.91 µM
14,CC(C)(C)COC(=O)N1C[C@@H](CO)[C@@H]2Oc3c(F)cccc3[C@@H]21,active: 31.6 µM
15,COc1ccc(-c2ccc3ncc(Nc4ccc(C(F)(F)F)cc4)n3n2)cn1,active: 79.4 µM
16,COCC1CN(Cc2cc(Br)ccc2OC)CC12CCNCC2 (centres undefined),"inconclusive: 44.7 µM [inhibitor, partial curve, poor fit]"
17,O=C(Cn1nc2c(cc1=O)CCCC2)N1CCC(c2noc3cc(F)ccc23)CC1,"inconclusive: 35.5 µM [inhibitor, single point]"
18,O=C(CC1CCCC1)N1CC(c2nc(CCOCc3ccccc3)no2)C1,inactive
19,O=C(NCCc1ccccc1F)c1ccc2nc(-c3ccccn3)oc2c1,"inconclusive: 50.1 µM [inhibitor, partial curve, poor fit]"
20,CC(C)Cc1cc(C[C@@H]2C[C@H](NC(=O)c3ccco3)C2(C)C)no1,"inconclusive: 112 µM [inhibitor, partial curve, poor fit]"
